PubChem BioAssay AID504466 (National Center for Advancing Translational Sciences (NCATS), 2011)
About 4,200 (1.3%) of roughly 330,000 compounds were called active. The shares of active, inactive and inconclusive entries below differ from those in the screen. The call rests on the fitted dose curve; in most records, active means well fitted activation curve with a large enough effect; inconclusive means small, poorly fitted or top-dose-only effect; inactive means no such curve, though single readings can be large or run the other way. A potency beside an inconclusive call is a rough fit, not a confirmed value.

assay: qHTS screen for small molecules that induce genotoxicity in human embryonic kidney (HEK293T) cells expressing luciferase-tagged ELG1; conditions: HEK293T ELG1-luciferase reporter, luminescence, 16 h; series mostly up to 46 µM; further: nearly all actives have a fitted effect of over 60% in size
In short: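 After overnight (16 hr) compound treatment at 37 °C, ELG1-luciferase HEK293T cells were lysed with ONE-Glo; luminescence quantified 30 min later at room temperature.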
Potency means the concentration at half of the fitted maximal effect; tags describe the fitted curve by direction and shape.

Row | Compound | Potency
1 | COc1ccc(C(=O)Nc2ccc3ccccc3c2)cc1OC | inconclusive: 9.2 µM [activator, partial curve]
2 | Cc1ccnc(Nc2nc(-c3ccccc3)cs2)c1 | inconclusive: 2.59 µM [activator, partial curve]
3 | Cc1ccc(S(=O)(=O)c2nc(-c3ccccc3Cl)oc2N(C)C)cc1 | inconclusive: 18.3 µM [activator, single point]
4 | COc1ccc(Cl)cc1NC(=O)c1nnn(CC(=O)Nc2ccc3c(c2)OCO3)c1N | inconclusive: 25.9 µM [activator, partial curve, poor fit]
5 | O=C(c1cccs1)C1C(c2ccc(Br)cc2)NC(=S)NC1(O)C(F)(F)F (stereo unspecified) | inconclusive: 10.3 µM [activator, partial curve, poor fit]
6 | O=C(Nc1cccc(Cl)c1)Nc1ccccc1C(=O)O | inconclusive: 2.59 µM [activator, partial curve]
7 | CC1CCC(NC(=O)Cn2cc3c(n2)CCCC3)CC1 (stereo unspecified) | active: 7.31 µM
8 | CCNC(=O)/C(C#N)=C/c1c(N2CCN(C)CC2)nc2c(C)cccn2c1=O | inactive
9 | CN(C)CCN(C(=O)/C=C/c1cccs1)c1nc2c(F)cc(F)cc2s1 | inconclusive: 29.1 µM [activator, partial curve, poor fit]
10 | Cc1cccc(C)c1NC(=O)Cn1nnc(-c2ccc(N3CCOCC3)cc2)n1 | inconclusive: 18.4 µM [activator, single point]
11 | N#Cc1c(NC(=S)NC(=O)c2ccccc2)sc2c1CCCC2 | inactive
12 | COc1ccc(Cn2c(C3CC3)nc3ccc(NC(C)=O)cc3c2=O)cc1 | inconclusive: 5.8 µM [activator, partial curve]
13 | CCn1c(SCc2nc3ccccc3s2)nnc1-c1ccccc1 | active: 13 µM
14 | Cc1ccc(NC(=O)C2CCCN(C(=O)c3ccc(Cl)cc3)C2)cc1 (stereo unspecified) | inactive
15 | COc1ccc(S(=O)(=O)NNc2nc(C)cc(C)n2)cc1Br | inactive
16 | CC1(C)CC(=O)C(N=Nc2ccc(Br)cc2)=C(O)C1 | active: 10.3 µM
17 | Cc1ccc(OC(C)c2nnc(N)s2)cc1Cl (stereo unspecified) | inconclusive: 32.6 µM [activator, partial curve, poor fit]
18 | CC(Oc1ccccc1)C(=O)NC1=NCCS1 (stereo unspecified) | inconclusive: 18.3 µM [activator, partial curve]
19 | CC(C)=N/N=C(/c1ccc([N+](=O)[O-])cc1)C12CN3CN(CN(C3)C1)C2 | inconclusive: 9.2 µM [activator, partial curve, poor fit]
20 | Brc1ccc(-c2nc(-c3ccccc3)no2)o1 | active: 8.2 µM
21 | CC(=O)Nc1ccc(/C=C/c2nc3ccccc3o2)cc1 | inconclusive: 5.8 µM [activator, partial curve]
22 | CCCOc1ccc(C(=O)NC(=S)NNC(=O)c2c(-c3ccccc3)noc2C)cc1 | inactive
23 | COc1ccc(OC)c2[nH]c(=O)c(CCNC(=O)C(=O)c3c(C)[nH]c4ccccc34)cc12 | inactive
24 | Cc1ccc(OCC(=O)c2ccc3c(c2)CCCC3)cc1C | inconclusive: 18.4 µM [activator, partial curve, poor fit]

Row | Compound | Potency
25 | C/C(=N\NC(=O)c1cc2ccccc2cc1O)c1cccs1 | inconclusive: 2.59 µM [activator, partial curve]
26 | CCn1nc(NS(=O)(=O)c2ccccc2)c2cc3cc(C)ccc3nc21 | inactive
27 | O=C(NCCN1CCOCC1)c1cc(-c2ccccc2Cl)on1 | inactive
28 | O=C(Cc1cccs1)NCc1ccccc1Br | inconclusive: 14.6 µM [activator, partial curve, poor fit]
29 | COc1cc(/C=C(\C#N)c2ccccn2)ccc1OCC(=O)Nc1cccc(C(F)(F)F)c1 | inconclusive: 16.4 µM [activator, single point]
30 | O=C(Nc1ccc(-c2noc(-c3cccs3)n2)cc1)c1cccnc1 | inconclusive: 2.59 µM [activator, partial curve]
31 | COc1ccc(S(=O)(=O)Nc2ccc(-c3ccc4nnc(C)n4n3)cc2)c(OC)c1 | inconclusive: 8.2 µM [activator, partial curve, poor fit]
32 | Cc1ccc(N/C=C/C(=O)c2ccccc2)cc1Br | inconclusive: 1.83 µM [activator, full curve]
33 | Cc1oc2cc3oc(=O)c(CCC(=O)NCCN4CCOCC4)c(C)c3cc2c1C | inconclusive: 18.3 µM [activator, partial curve, poor fit]
34 | O=C(CC1SC(N2CCCC2)=NC1=O)Nc1ccc(C(=O)Nc2ncccc2O)cc1 (stereo unspecified) | inconclusive: 25.9 µM [activator, single point]
35 | CCOC(=O)N1CCC(NC(=O)c2cc(C(=O)Nc3ccc(S(=O)(=O)N4CCOCC4)cc3)ccc2CO)CC1 | inconclusive: 32.6 µM [activator, partial curve, poor fit]
36 | COc1ccc(C(=O)Nc2ccc3[nH]c(-c4cccc(OC)c4)cc(=O)c3c2)cc1 | inconclusive: 3.66 µM [activator, full curve, poor fit]
37 | O=C(/C=C/Nc1ccc(F)cc1F)c1cccs1 | inconclusive: 0.411 µM [activator, full curve]
38 | O=C(O)c1ccc(COc2ccc3ccccc3c2)o1 | inconclusive: 5.8 µM [activator, partial curve, poor fit]
39 | S=c1[nH]nc(C2CCCCC2)n1/N=C/c1ccncc1 | inactive
40 | COc1ccc(-c2noc(C3CCCN(C(=O)CCc4ccccc4)C3)n2)cc1 (stereo unspecified) | inconclusive: 25.9 µM [activator, single point]
41 | CN1C(=O)/C(=C/c2ccco2)SC1=Nc1ccc(N2CCOCC2)cc1 | inactive
42 | CCN(CC)CC(=O)Nc1ccc(-c2nc3cc(NC(=O)CN(CC)CC)ccc3o2)cc1 | inconclusive: 23.1 µM [activator, partial curve, poor fit]
43 | N#Cc1ccccc1S(=O)(=O)N1CCN(CC(O)COc2ccccc2F)CC1 (stereo unspecified) | inactive
44 | O=C(CSc1nnc(Cn2cnc3ccccc32)o1)c1ccccc1 | inconclusive: 25.9 µM [activator, partial curve, poor fit]
45 | COc1ccc2cc3cc(C(=O)NCCN4CCc5ccccc5C4)sc3nc2c1 | inactive
46 | O=C(CSc1nncs1)Nc1ccc(N2CCCCC2)cc1 | inactive
47 | CCN(CC)CCN1C(=O)c2cccc3cc(N)cc(c23)C1=O | inconclusive: 32.6 µM [activator, partial curve, poor fit]
48 | Cc1cc(/C=C2\NC(=S)N(C)C2=O)ccc1N1CCCC1 | inconclusive: 3.26 µM [activator, full curve, poor fit]

Row | Compound | Potency
49 | CC1CCc2c(C(=O)Nc3ccccn3)csc2C1 (stereo unspecified) | inconclusive: 1.64 µM [activator, full curve, poor fit]
50 | CC(OC(=O)c1ccc(Cl)nc1)C(=O)NC1CCCC1 (stereo unspecified) | inactive
51 | O=C(NC(=S)Nc1ccc2nc[nH]c2c1)c1ccccc1 | inconclusive: 14.6 µM [activator, partial curve]
52 | COCCn1c(C)cc(C(=O)COC(=O)c2ccccc2Br)c1C | active: 0.206 µM
53 | Cc1ccc2oc(-c3cccc(N)c3)nc2c1 | active: 2.31 µM
54 | Cc1ccc(OCc2nc(-c3ccccc3)no2)c(C)c1 | active: 3.16 µM
55 | CC(=O)NCCc1nc2cc(NC(=O)c3ccc(F)cc3)ccc2n1C | inconclusive: 16.4 µM [activator, partial curve, poor fit]
56 | CC1=[N+](CC(=O)c2ccccc2)CCn2cccc21 | inconclusive: 11.6 µM [activator, partial curve, poor fit]
57 | Cc1ccc(N=Nc2c(O)c3ccccc3[nH]c2=O)c(S(=O)(=O)N(C)C)c1 | inconclusive: 18.3 µM [activator, partial curve, poor fit]
58 | CCOc1ccc2[nH]c(=O)c(CN(Cc3ccco3)C(=O)c3ccc(Br)cc3)cc2c1 | inactive
59 | CC[C@]12c3[nH]c4ccc(OC)cc4c3CCN1C(=O)C(CC(=O)NCc1ccco1)C[C@@H]2C(=O)N1CCN(C(=O)c2ccco2)CC1 (stereo partly specified) | inactive
60 | O=C(N/N=C/c1cccc(Cl)c1)c1c(O)c2c([nH]c1=O)CCCC2 | inconclusive: 2.59 µM [activator, partial curve, poor fit]
61 | Cc1cc(SCC(=O)NCCCN2CCCC2=O)nc2ccccc12 | inactive
62 | Cc1ccc(/C(N)=N/OC(=O)c2ccc3c(c2)OCO3)cc1 | inconclusive: 13 µM [activator, partial curve]
63 | O=C(O)c1cc(S(=O)(=O)N2CCN(c3ccccn3)CC2)ccc1Cl | inactive
64 | Cc1ccc(S(=O)(=O)N2CCCCC2)cc1C(=O)N(CCc1ccccc1)Cc1ccccc1 | inactive
65 | N#Cc1c(N2CCCC2)nsc1-c1ccccc1 | inconclusive: 23.1 µM [activator, partial curve, poor fit]
66 | COC(=O)c1ccc(NC(=O)c2cccc(OC)c2)cc1 | inconclusive: 16.4 µM [activator, partial curve, poor fit]
67 | CCc1nnc(NC(=O)C(CC)CC)s1 | inactive
68 | Cc1ccccc1Oc1nc2c(C)cccn2c(=O)c1/C=C(\C#N)C(=O)NC1CCS(=O)(=O)C1 (stereo unspecified) | inconclusive: 29.1 µM [activator, partial curve, poor fit]
69 | c1csc(-c2nn[nH]n2)c1 | inconclusive: 20.6 µM [activator, single point]
70 | CCCCCn1nc(C(=O)N2CCc3ccccc32)c2ccccc2c1=O | inactive
71 | Cc1nn(C)cc1/C=C/C(=O)c1cccs1 | active: 18.4 µM
